Source: PubChem BioAssay (NCI)
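Values below derive from 48-hour exposures of cells grown in 96-well plates, with endpoints linearly interpolated between the two concentrations bracketing the appropriate inhibition level. GI50: concentration for 50% inhibition of growth. TGI: total growth inhibition.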

Tested on: NCI-H322M lung
Experiment: inhibition of tumour cell growth, NCI panel, 48 h

Row | Compound | GI50 [µM] | TGI [µM]
1 | CN1CCN(Cc2ccc(C(=O)Nc3cccc(Nc4ccc5c(O)cccc5n4)c3)cc2C(F)(F)F)CC1 | 3.23 | 11.6
2 | COc1cccc(-c2ccc(/C=N/NC(=O)c3[nH]c4ccc(Br)cc4c3-c3ccccc3)s2)c1 | 5.02 | > 100
3 | Cn1cc(-c2cc3nc(-c4cn(C)c5ncc(Br)cc45)cc(N)n3n2)c2ccccc21 | 10.4 | 45.1
4 | CN1CCN(Cc2ccc(NC(=O)c3cncc(C#Cc4cnc5ccc(N[C@H]6CCOC6)nn45)c3)cc2C(F)(F)F)CC1 | 0.159 | 0.627
